In the supplement of paper PMC4967469:

How the values were obtained:
Assay in all cases: Viability of human cancer cell lines after 72 h of drug (GDSC screen)
[1] = compound: Oc1cccc(-c2nc(N3CCOCC3)c3oc4ncccc4c3n2)c1 [PI-103]; settings: top dose 10.24 µM
Protocol: (§1)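 Human cancer cell lines in 384-well plates, medium with 10% serum, drug for 72 h over a 256-fold dose range (nine 2-fold or five 4-fold steps up to the top dose). Adherent lines were fixed and stained with the nucleic acid dye Syto60, suspension lines read with resazurin; signal relative to control wells, capped at 0 and 100%. One two-parameter sigmoid per drug and line, fitted in a mixed model over all curves with the slope shared within a line.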

[2] = compound: O=C(NCCCNc1nc(Nc2cccc(NC(=O)N3CCCC3)c2)ncc1I)c1cccs1 [BX-795]; settings: top dose 5 µM; top dose inferred
Protocol: as §1

[3] = compound: CC1=C(/C=C/C(C)=C/C=C/C(C)=C/C(=O)O)C(C)(C)CCC1 [Tretinoin]; settings: top dose 10 µM; top dose inferred
Protocol: as §1

[4] = compound: Cc1cccc(-c2[nH]c(C(C)(C)C)nc2-c2ccc3c(c2)OCO3)n1 [SB-505124]; settings: top dose 10 µM; top dose inferred
Protocol: as §1

[5] = compound: CCn1c(-c2nonc2N)nc2c(C#CC(C)(C)O)ncc(OC[C@H]3CCCNC3)c21 [GSK690693]; settings: top dose 10.24 µM; top dose inferred
Protocol: as §1

[6] = compound: COc1cc2c(NC3CCN(C(C)C)CC3)nc(C3CCCCC3)nc2cc1OCCCN1CCCC1 [UNC0638]
Protocol: as §1

[7] = top dose 20 µM, screen: GDSC drug entry 1236, top dose inferred
[8] = top dose 40 µM, screen: GDSC drug entry 245

Row | Cell Line | AUC [1] | IC50 [1] | AUC [2] | IC50 [2] | AUC [3] | IC50 [3] | AUC [4] | IC50 [4] | AUC [5] | IC50 [5] | AUC [6, 7] | IC50 [6, 7] | AUC [6, 8] | IC50 [6, 8]
1 | G-292 Clone A141B1 (osteosarcoma, adherent) | 0.44 | 0.399 µM | 0.749 | 2.56 µM | 0.448 | 0.415 µM | 0.971 | > 10 µM | 0.975 | > 10.2 µM | 0.898 | > 20 µM | 0.813 | > 40 µM
2 | G-361 (melanoma, adherent) | 0.98 | > 10.2 µM | 0.945 | > 5 µM | 0.988 | > 10 µM | 0.961 | > 10 µM | 0.988 | > 10.2 µM | 0.824 | 11.3 µM | 0.648 | 6.31 µM
3 | G-401 (kidney, adherent) | 0.458 | 0.487 µM | 0.813 | 3.04 µM | 0.959 | > 10 µM | 0.948 | > 10 µM | 0.89 | > 10.2 µM | 0.811 | 11.9 µM | 0.763 | 15.7 µM
4 | G-402 (soft tissue, adherent) | 0.45 | 0.448 µM | 0.747 | 2.08 µM | 0.888 | > 10 µM | 0.789 | 6.11 µM | 0.935 | > 10.2 µM | 0.718 | 6.44 µM | 0.724 | 13.6 µM
5 | GMS-10 (glioma, adherent) | 0.926 | > 10.2 µM | 0.852 | 3.8 µM | 0.977 | > 10 µM | 0.987 | > 10 µM | 0.988 | > 10.2 µM | 0.903 | > 20 µM | 0.887 | > 40 µM
6 | H4 (glioma, adherent) | 0.68 | 2.03 µM | 0.691 | 1.07 µM | 0.965 | > 10 µM | 0.985 | > 10 µM | 0.943 | > 10.2 µM | 0.822 | 11.5 µM | 0.848 | 29.1 µM
7 | H290 (mesothelioma, adherent) | 0.923 | > 10.2 µM | 0.855 | 3.47 µM | 0.989 | > 10 µM | 0.962 | > 10 µM | 0.989 | > 10.2 µM | 0.82 | 10.2 µM |  | 
8 | H513 (mesothelioma, semi-adherent) | 0.807 | 6.66 µM | 0.968 | > 5 µM | 0.985 | > 10 µM | 0.984 | > 10 µM | 0.984 | > 10.2 µM | 0.892 | > 20 µM | 0.924 | > 40 µM
9 | H2369 (mesothelioma, adherent) | 0.979 | > 10.2 µM | 0.93 | > 5 µM | 0.98 | > 10 µM | 0.979 | > 10 µM | 0.982 | > 10.2 µM | 0.85 | 15.9 µM | 0.792 | 18.8 µM
10 | H2373 (mesothelioma, adherent) | 0.799 | 6.45 µM | 0.885 | > 5 µM | 0.963 | > 10 µM | 0.962 | > 10 µM | 0.952 | > 10.2 µM | 0.98 | > 20 µM | 0.847 | > 40 µM
11 | H2461 (mesothelioma, adherent) | 0.979 | > 10.2 µM | 0.922 | > 5 µM | 0.983 | > 10 µM | 0.951 | > 10 µM | 0.983 | > 10.2 µM | 0.714 | 5.93 µM | 0.779 | 20.7 µM
12 | H2595 (mesothelioma, adherent) | 0.944 | > 10.2 µM | 0.785 | 3.12 µM | 0.934 | > 10 µM | 0.948 | > 10 µM | 0.963 | > 10.2 µM | 0.85 | > 20 µM | 0.72 | 13.6 µM
13 | H2731 (mesothelioma, adherent) | 0.846 | 9.16 µM | 0.864 | > 5 µM | 0.971 | > 10 µM | 0.96 | > 10 µM | 0.944 | > 10.2 µM | 0.798 | 11.1 µM | 0.425 | 1.52 µM
14 | H2795 (mesothelioma, adherent) | 0.848 | 7.48 µM | 0.862 | 4.2 µM | 0.75 | 3.22 µM | 0.986 | > 10 µM | 0.987 | > 10.2 µM | 0.855 | 15.6 µM | 0.714 | 9.94 µM
15 | H2869 (mesothelioma, adherent) | 0.893 | > 10.2 µM | 0.946 | > 5 µM | 0.984 | > 10 µM | 0.982 | > 10 µM | 0.925 | > 10.2 µM | 0.887 | > 20 µM | 0.803 | 25.7 µM
16 | H3118 (head and neck, adherent) | 0.48 | 0.56 µM | 0.885 | > 5 µM | 0.847 | 8.41 µM | 0.955 | > 10 µM | 0.979 | > 10.2 µM | 0.633 | 3.01 µM | 0.749 | 14 µM
17 | H3255 (lung adenocarcinoma, adherent) | 0.855 | > 10.2 µM | 0.916 | > 5 µM | 0.963 | > 10 µM | 0.975 | > 10 µM | 0.969 | > 10.2 µM | 0.843 | 18.4 µM | 0.852 | > 40 µM
18 | HARA (lung squamous cell carcinoma, adherent) | 0.334 | 0.203 µM | 0.837 | 4.19 µM | 0.943 | > 10 µM | 0.981 | > 10 µM | 0.85 | 9.85 µM | 0.832 | 15.9 µM | 0.677 | 8.54 µM
19 | HCC38 (breast, adherent) | 0.565 | 0.978 µM | 0.908 | > 5 µM | 0.986 | > 10 µM | 0.898 | > 10 µM | 0.977 | > 10.2 µM | 0.914 | > 20 µM | 0.777 | 17.5 µM
20 | HCC1143 (breast, adherent) | 0.766 | 5.31 µM | 0.882 | > 5 µM | 0.98 | > 10 µM | 0.969 | > 10 µM | 0.967 | > 10.2 µM | 0.758 | 9.62 µM | 0.937 | > 40 µM

A lower IC50 marks a more sensitive line; a limit (>, <) means that the fit lies beyond the doses tested. AUC, from the same fit, is the share of area under the viability curve across the 256-fold dose range; it is 1 without any effect and falls as sensitivity rises. For some assays here: Any top dose called inferred was derived from the fitted curves, not read from the paper. For some assays here: Where an entry number is given, a second screen of the drug exists; the two often differ.
